Results as given in PubChem BioAssay AID2147 (National Center for Advancing Translational Sciences (NCATS), 2009).
The whole screen tested about 230,000 compounds, of which about 3,600 (1.6%) were called active. The shares of active, inactive and inconclusive entries below differ from those in the screen. The call rests on the fitted dose curve; in most records, active means well fitted inhibition curve with a large enough effect (not every such curve was filed as active); inconclusive means small, poorly fitted or top-dose-only effect, or another doubt; inactive means no such curve, though single readings can be large or run the other way. Potencies beside an inconclusive call are fits to weak or partial responses and may not hold up.

Biological target: Lysine-specific demethylase 4E (Homo sapiens) (UniProt B2RXH2)
Assay: qHTS Assay for Inhibitors of Human Jumonji Domain Containing 2E (JMJD2E)
Conditions: JMJD2E catalytic domain, FDH-coupled NADH fluorescence (FDH is formaldehyde dehydrogenase); series mostly up to 57.1 µM; activity change, negative = inhibition: at the top concentration
Further: nearly all actives have a fitted effect of over 50% in size.
Potency means the concentration at half of the fitted maximal effect; tags describe the fitted curve by direction and shape.
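Wherever activity change, negative = inhibition is given: 0% = wells with enzyme and -100% = buffer wells without enzyme.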

UniProt B2RXH2, sequence (B2RXH2 whole entry, looked up, the tested form may be a part): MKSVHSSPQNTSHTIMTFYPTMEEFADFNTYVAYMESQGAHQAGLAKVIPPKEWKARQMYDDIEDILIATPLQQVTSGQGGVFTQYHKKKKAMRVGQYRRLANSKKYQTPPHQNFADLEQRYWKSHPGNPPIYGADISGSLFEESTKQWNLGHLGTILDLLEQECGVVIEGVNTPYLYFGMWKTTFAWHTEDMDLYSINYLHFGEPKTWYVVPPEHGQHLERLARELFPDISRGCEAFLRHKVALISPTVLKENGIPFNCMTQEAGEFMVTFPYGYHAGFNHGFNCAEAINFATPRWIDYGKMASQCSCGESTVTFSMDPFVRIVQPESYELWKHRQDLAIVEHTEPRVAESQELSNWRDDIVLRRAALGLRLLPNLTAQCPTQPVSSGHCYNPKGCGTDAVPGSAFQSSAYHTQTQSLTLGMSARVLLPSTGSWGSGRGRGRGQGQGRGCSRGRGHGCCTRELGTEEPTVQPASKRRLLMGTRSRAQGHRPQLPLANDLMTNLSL

SMILES | Potency | activity change, negative = inhibition
CSCc1nnc(NC(=O)c2ccc(S(=O)(=O)N(CC(C)C)CC(C)C)cc2)o1 | inconclusive: 39.8 µM [inhibitor, single point] | 
COC(=O)c1cccc(NC2CC(=O)N(c3ccc(OC)c(OC)c3)C2=O)c1 (stereo not drawn) | inconclusive: 10 µM [inhibitor, partial curve] | 
COC(=O)/C(=C/c1c[nH]c2ccccc12)NC(C)=O | active: 20 µM | 
O=C(CSc1nnc(Cc2ccccc2)o1)N1CCc2ccccc21 |  | inactive: 9.51%
COc1ccc(C(=O)NNC(=S)NC2CCCCC2)cc1OC |  | inactive: 0.126%
COc1ccc2sc(/C=C/c3ccccc3O)[n+](C)c2c1 |  | inactive: -12.9%
COc1ccc(-c2cc(C(=O)OCC(=O)N3CCCC3)c3ccccc3n2)cc1 | inconclusive: 28.2 µM [inhibitor, partial curve] | 
N#CC1(C#N)COC23CCCCC2C1(C#N)C(=N)O3 (stereo not drawn) | inconclusive: 28.2 µM [inhibitor, partial curve] | 
CC(C)(C)c1ccc(-n2nc(C(N)=O)c(O)cc2=O)cc1 |  | inactive: 0.177%
CCN(CC)S(=O)(=O)c1csc(C(=O)NCc2ccccc2)c1 |  | inactive: 11.3%
CC(C)(C)c1[nH]nc2c1C(c1ccoc1)C(C#N)=C(N)O2 (stereo not drawn) |  | inactive: 0.49%
Cc1cccc(NC(=O)c2ccc(COc3cccc4ccccc34)o2)n1 | inconclusive: 39.8 µM [inhibitor, single point] | 
Cc1sc(NC(=O)c2ccccc2F)c(CN2CCCCC2C)c1C (stereo not drawn) | inconclusive: 39.8 µM [inhibitor, single point] | 
O=C(NN1C(=O)C2C3C=CC(O3)C2C1=O)c1cccc(Br)c1 (stereo not drawn) |  | inactive: 0.806%
COCCN1CCn2c(nc3cc(NC(=O)c4cccs4)ccc32)C1 | inconclusive: 6.31 µM [inhibitor, single point] | 
Cc1cccc(N=CC=C2OC(C)(C)C(C)(C)O2)c1 | inconclusive: 22.4 µM [inhibitor, single point] | 
CN(CCO)C1=NS(=O)(=O)c2cc([N+](=O)[O-])ccc21 | inconclusive: 5.01 µM [inhibitor, single point] | 
Cn1cccc1Cc1nnc(SCC(=O)N2CCN(c3ccccc3)CC2)n1-c1ccc(F)cc1 |  | inactive: -29.9%
CSc1nc2ccc3nc(NC(=O)c4cccs4)sc3c2s1 | inconclusive: 3.98 µM [inhibitor, full curve] | 
COc1ccc(CN2CCC(C(=O)N3CCN(c4ccccc4F)CC3)CC2)cc1OC | inconclusive: 35.5 µM [inhibitor, single point] | 
O=C1C=CC(=O)c2c1ccc1c2ccc2ccccc21 |  | inactive: 3.49% [at 25.5 µM]
COc1ccc(-c2ccc3ccccc3n2)cc1OC | inconclusive: 31.6 µM [inhibitor, partial curve] | 
COc1ccc(-c2cnn3c4c(c(C)nc23)CCN4C(C)C)cc1OC | inconclusive: 12.6 µM [inhibitor, partial curve] | 
Cc1nn(-c2ccccc2)nc1CNC(=O)C1CCC1 | inconclusive: 35.5 µM [inhibitor, single point] | 
C=CCn1c(SCC(=O)c2ccc(O)c(O)c2)nnc1-c1ccccc1OC | active: 10 µM | 

SMILES | Potency | activity change, negative = inhibition
Cc1ccc(NC(=O)c2ccccc2NS(=O)(=O)c2ccc(Cl)s2)cc1S(=O)(=O)N1CCOCC1 |  | inactive: -28.1%
COc1ccc(CCNC(=O)c2ccc3c(=O)n(Cc4ccco4)c(=S)[nH]c3c2)cc1OC |  | inactive: -18%
COc1ccccc1CNC(=O)COC(=O)c1ccc(Cl)c(N)c1 | inconclusive: 35.5 µM [inhibitor, single point] | 
CCCCCc1c(O)c2ccccc2[nH]c1=O | inconclusive: 31.6 µM [inhibitor, partial curve] | 
COc1ccc2[nH]c(=O)c(C(c3nnnn3CC3CCCO3)N3CCCCC3)cc2c1 (stereo not drawn) | inconclusive: 31.6 µM [inhibitor, partial curve] | 
CCN(CC)c1nc(C(N)=O)cc(-c2ccccc2)n1 | inconclusive: 35.5 µM [inhibitor, single point] | 
Clc1ccc(CN2CCCCCCC2)cc1Cl |  | inactive: -28.1%
O=C1CC(c2ccco2)=Nc2ccccc2N1 |  | inactive: 1.24%
Cc1ccc(S(=O)(=O)/C=C/c2ccccc2)cc1 |  | inactive: -4.39%
Cc1cccc(NC2=NCC(=O)N2Cc2cccs2)c1 |  | inactive: -29.4%
CCOC(=O)c1c(NC(=O)CCC(=O)O)sc2c1CC(C)(C)OC2 | inconclusive: 39.8 µM [inhibitor, single point] | 
O=C(/C=C/c1ccc(Br)o1)NCCCN1CCOCC1 | inconclusive: 20 µM [inhibitor, partial curve] | 
COCCC(=O)Nc1ccc2c(c1)CN(C(=O)CCOC)CC2 | inconclusive: 4.47 µM [inhibitor, single point] | 
COc1cc2nc(N3CCN(C(=O)OCc4ccccc4)C(C(=O)NC(C)(C)C)C3)nc(N)c2cc1OC (stereo not drawn) | inconclusive: 28.2 µM [inhibitor, partial curve] | 
O=C(CN1C(=O)c2cccc3cccc1c23)N1CCc2ccccc2C1 | inconclusive: 25.1 µM [inhibitor, single point] | 
COC(=O)c1c(NC(=O)CN(c2ccccc2)S(C)(=O)=O)sc2c1CCCC2 | inconclusive: 39.8 µM [inhibitor, single point] | 
Cc1ccc2c(c1)c(=O)c1c3n2CCN(C(=O)CCl)C3CC1 (stereo not drawn) | inconclusive: 20 µM [inhibitor, partial curve] | 
Cc1cc(C)n(-c2cc(Cl)ccc2[N+](=O)[O-])n1 |  | inactive: 5.57%
Clc1cccc(NCc2nnc3n2CCCCC3)c1 |  | inactive: 1%
NC(=O)COC(=O)c1ccc(C(=O)C(=O)c2ccccc2)cc1 | inconclusive: 22.4 µM [inhibitor, single point] | 
S=C(NNc1ccnc2cc(Cl)ccc12)Nc1ccc(Cl)cc1Cl | inconclusive: 8.91 µM [inhibitor, full curve, poor fit] | 
COC(=O)c1sc(S(=O)(=O)N2CCCCC2)c(C(=O)OC)c1C |  | inactive: 3.16%
Cc1nn2c3ccccc3n(C)c2nc1=O | inconclusive: 35.5 µM [inhibitor, partial curve] | 
CC(=O)Nc1ccc2c(c1)nc1n2CCN(C2CCCCC2)C1 | inconclusive: 35.5 µM [inhibitor, partial curve] | 
COc1ccc(NC(=O)c2ccccn2)cc1OC | inconclusive: 22.4 µM [inhibitor, single point] | 

SMILES | Potency | activity change, negative = inhibition
Cc1cc(C(C)(C)C)ccc1OCCN(C)C | inconclusive: 25.1 µM [inhibitor, single point] | 
CCOc1ccc(OCc2cccc(C(=O)Nc3ccc(CN4CCCCC4)cc3)c2)cc1 |  | inactive: -8.39%
S=c1nc(-c2ccc(Cl)cc2)[nH][nH]1 | inconclusive: 31.6 µM [inhibitor, single point] | 
O=C(NC1CCCCCC1)c1ccc2nc3cc(Cl)ccc3c(=O)n2c1 | inconclusive: 14.1 µM [inhibitor, single point] | 
CCOC(=O)c1ccc2ncc(C(=O)OCC)c(NCc3ccco3)c2c1 | inconclusive: 22.4 µM [inhibitor, partial curve] | 
Cc1cc(C(C)(C)C)cc(S(=O)(=O)NCC(=O)O)c1C |  | inactive: 6.07%
Nc1ccc(-c2nc3ccc(N)cc3o2)cc1 | inconclusive: 3.55 µM [inhibitor, partial curve] | 
Cc1cc(N2CCN(C)CC2)nc2ccc(NC(=S)N3CCCCCC3)cc12 | inconclusive: 25.1 µM [inhibitor, partial curve] | 
Cc1cc(C)nc(SCNC(=O)c2ccc(Cl)cc2)n1 |  | inactive: 3.85%
NC(=S)n1[nH]c(-c2ccc([N+](=O)[O-])cc2)c(N=Nc2cccc([N+](=O)[O-])c2)c1=O | inconclusive: 35.5 µM [inhibitor, single point] | 
CC(=O)Nc1ccc(S(=O)(=O)Nc2ccc([N+](=O)[O-])cc2)cc1 | inconclusive: 28.2 µM [inhibitor, single point] | 
Cc1ccc(C2=CC(c3cccs3)n3nnnc3N2)cc1 (stereo not drawn) | inconclusive: 12.6 µM [inhibitor, partial curve] | 
CCOc1ccc(C2c3c(oc4cc(C)c(C)cc4c3=O)C(=O)N2CCCN2CCOCC2)cc1 (stereo not drawn) | inconclusive: 39.8 µM [inhibitor, single point] | 
CCOC(=O)c1[nH]c2cc(OC)c(OC)cc2c1NC(=O)CN(C)C1CCCCC1 | inconclusive: 31.6 µM [inhibitor, partial curve] | 
COC(=O)c1scc(S(=O)(=O)c2ccccc2)c1N | inconclusive: 31.6 µM [inhibitor, partial curve] | 
CCn1c(SCC(=O)Nc2cccc(F)c2)nnc1-c1cc2cc(Br)ccc2o1 | inconclusive: 28.2 µM [inhibitor, single point] | 
Cc1onc(-c2ccccc2Cl)c1C(=O)Nc1nnc(C(C)C)s1 |  | inactive: 1.55%
CC1=NN(c2ccc(C)c(C)c2)C(=O)C1C(c1cccc(O)c1)C1C(=O)N(c2ccc(C)c(C)c2)N=C1C (stereo not drawn) |  | inactive: -19.6%
COc1ccc(C2=C(SC)CC2=NC(C)(C)C)cc1 | inconclusive: 39.8 µM [inhibitor, single point] | 
CCCCN(C(=O)c1c(C)[nH]c(C(=O)OCC)c1C)c1ccccc1 |  | inactive: 5.86%
O=S(=O)(c1ccc(NC2CCCc3ccccc32)nc1)N1CCOCC1 (stereo not drawn) | inconclusive: 39.8 µM [inhibitor, single point] | 
COc1ccc(-c2cc(C(F)(F)F)nc(S(C)(=O)=O)n2)cc1 | inconclusive: 25.1 µM [inhibitor, partial curve] | 
Cn1c2ccccc2c2c(C(=O)N3CCN(c4ccccn4)CC3)cn(C3CCCC3)c(=O)c21 | inconclusive: 31.6 µM [inhibitor, partial curve] | 
